± gives the standard deviation. In all, about 6,600 sequences were measured (“pre-steady-state target cleavage rate”: median about 0.07, highest 2% from about 0.72 on). The list shows a part of the results, in another mix than the full data. A value given as a limit tells only on which side of the number the result lay.
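Also: 1 nM active piRISC with 0.1 nM target library at 33 °C single turnover.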

The experiment has as its system MIWI (PIWIL1) piRISC loaded with Kctd7 piRNA (30 nt). The experiment can be described thus: pre-steady-state target cleavage rate (min^-1); MIWI and MILI are mouse PIWI proteins and EfPiwi is from a freshwater sponge; tags in brackets are library labels; higher = faster piRNA-guided slicing of the target. The note with it: guide: Kctd7 piRNA 5'p-UGUUAAUCUCUCAGAGAAGGUGACAGUGAU; auxiliary factor: 500 nM mouse GTSF1. In short, it runs like this:
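A burst-and-steady-state fit was used to obtain the pre-steady-state cleavage rate. The input data were sequencing reads of uncleaved targets, normalised to depth and to weakly complementary targets, from a […] transcribed, DNA-blocked target RNA library mixed with 1 nM active affinity-purified piRISC holding one synthetic guide, with or without 500 nM GTSF1 partner protein, in HEPES–potassium acetate buffer at 33 °C for 0–8 or 0–960 min. Three trials were pooled and k3 was capped at 0.0001 min^-1.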
Regarding UAGUCUGUCACGUUCUCUCAGAGAUUAACA, the “pre-steady-state target cleavage rate” value came out at 0.0637 ± 0.0058.

For UUCACUGACACCUUCUCUGAGAGAUUAUGA, the “pre-steady-state target cleavage rate” value was determined as 0.185 ± 0.043.

Turning to UAGUGACUCACCUUCUCUGAGAGAAAAACA, the “pre-steady-state target cleavage rate” value was 0.136 ± 0.03.

Consider UAGUGACACACAUUCUCUGAGAGAUUAACA, for which the “pre-steady-state target cleavage rate” value is 0.177 ± 0.018.

For UAGUGACUGACCUUCUCUCAGAGAUUAACA, the “pre-steady-state target cleavage rate” value is 0.0111 ± 0.005.

In the case of UAGUGACAGACCUUCUCUGAGAGAUUUACA, the “pre-steady-state target cleavage rate” value was 0.0894 ± 0.014.

Take UAGUGACUGACCUUCUCUGAGAGUUUAACA: the “pre-steady-state target cleavage rate” value is 0.0982 ± 0.018.

In the case of UAGUGACAGUCCUUCGCUGAGAGAUUAACA, the “pre-steady-state target cleavage rate” value turned out to be 0.00917 ± 0.0021.

For the sequence UAGACUGUCACCUUAUCUGAGAGAUUAACA, the “pre-steady-state target cleavage rate” value worked out at 0.651 ± 0.038.

Regarding UUGACUGUCACCUUCUCUCAGAGAUUAACA, the “pre-steady-state target cleavage rate” value was 0.0999 ± 0.0057.

With AUCACUGUCACCUACUCUGACAGAUUAACA, the “pre-steady-state target cleavage rate” value was found to be 0.208 ± 0.021.

Consider AUCACUGUCUCCUACUCUGAGAGAUUAACA, for which the “pre-steady-state target cleavage rate” value is 0.622 ± 0.038.

For the sequence UUCACUGUCACCUUCUGUGAGAGAUUUACA, the “pre-steady-state target cleavage rate” value was found to be 0.166 ± 0.025.

With UUCACUGUCACCUUCUCUGAGAGAUUAAA, the “pre-steady-state target cleavage rate” value was 0.243 ± 0.032.

Consider AUCACUGUCACCUUCUCUGAGAGUAAAAGA, for which the “pre-steady-state target cleavage rate” value amounted to 0.0962 ± 0.028.

Take UACACUGAGUCCUUCUCUGAGAGAUAUUGA: the “pre-steady-state target cleavage rate” value amounted to 0.0106 ± 0.0041.

Take UAGUGACAGUGCUUCUCUGAGAGAUUAAAA: the “pre-steady-state target cleavage rate” value is 0.00713 ± 0.0029.

Consider UAGUGAGACACCUUCUCUGAGAGAUUAACA, for which the “pre-steady-state target cleavage rate” value worked out at 0.497 ± 0.027.

With UAGUGACAGUGCUUCUCUGAGAGAUCAACA, the “pre-steady-state target cleavage rate” value is 0.00952 ± 0.0016.

As to UAGUGACAGUGGUUCCUCUGAGAGAUUAACA, the “pre-steady-state target cleavage rate” value is under 0.0001.

Take UAGUGACAGACCUUCUCUGAGAGUUUAACA: the “pre-steady-state target cleavage rate” value is 0.066 ± 0.013.

For the sequence UAGUGACAGAACCUUCUCUGAGAGAUUAACA, the “pre-steady-state target cleavage rate” value came to 0.204 ± 0.018.

With UACACUGUCACCUUCUCUCAGAGAUUAUGA, the “pre-steady-state target cleavage rate” value stood at 0.0194 ± 0.011.

As for UAGUGUGUGUCCUUCUCUGAGAGAUUAAGA, the “pre-steady-state target cleavage rate” value was found to be 0.0367 ± 0.0083.

UACACUGUCACCUUCUCUGAGAGAUUAACCA: the “pre-steady-state target cleavage rate” value turned out to be 0.629 ± 0.053.

Regarding UAGACUCUCUCCUUCUCUGAGAGAUUAACA, the “pre-steady-state target cleavage rate” value was 0.302 ± 0.02.

In the case of UAGUGUGUCAGGUUCUCUGAGAGAUUAUGA, the “pre-steady-state target cleavage rate” value came out at 0.00941 ± 0.0032.

In the case of UACACUGUCACCUUCUCUGAAGAUUAACA, the “pre-steady-state target cleavage rate” value was 0.0277 ± 0.01.

In the case of UAGACUGUCACCUUCGUCUGAGAGAUUAACA, the “pre-steady-state target cleavage rate” value was 0.0773 ± 0.018.

Turning to AUCACUGACACGUUCUCUGAGAGAUUAACA, the “pre-steady-state target cleavage rate” value stood at 0.601 ± 0.03.

UACACUGUCACCAUCUCUGAGAGAUUAAGA: the “pre-steady-state target cleavage rate” value worked out at 0.0844 ± 0.017.

As to UAGUGUGUCACCUUCUCUGAGAGAUUUAACA, the “pre-steady-state target cleavage rate” value came to 0.477 ± 0.061.

Turning to UAGUCUGUCACUUUCUCUGAGAGAUUAACA, the “pre-steady-state target cleavage rate” value amounted to 0.642 ± 0.023.

Turning to UAGUGACUCACCUUCUCUGAGAGAAUUAACA, the “pre-steady-state target cleavage rate” value is 0.242 ± 0.035.

In the case of UAGACUGUCACCUUCUCUGAGUAGAUUAACA, the “pre-steady-state target cleavage rate” value is 0.00464 ± 0.0024.

With UUCACAGUCACCUUCUCUGAGACAUUAACA, the “pre-steady-state target cleavage rate” value was determined as 0.242 ± 0.022.

As to UAGUGACACACCUUCUCUGAGAGAAUAAGA, the “pre-steady-state target cleavage rate” value was 0.0102 ± 0.0058.

UAGACUCUCACGUUCUCUGAGAGAUUAACA: the “pre-steady-state target cleavage rate” value came to 0.351 ± 0.022.

For the sequence UAGUGUGUCACCUUCUCUGAGAGUAUAACA, the “pre-steady-state target cleavage rate” value is 0.24 ± 0.052.

In the case of UAGUGAGUCACCUUCACUGAGAGAUAAACA, the “pre-steady-state target cleavage rate” value was 0.125 ± 0.02.

Turning to UAGACUGACACCUUCUCUGAGAGAUUAACA, the “pre-steady-state target cleavage rate” value was determined as 0.62 ± 0.035.

Consider UAGUGAGAGACCUUCUCUGAGAGAUUAACA, for which the “pre-steady-state target cleavage rate” value stood at 0.2 ± 0.016.

With UACACUGUAACCUUCUCUGAGAGAUUAACA, the “pre-steady-state target cleavage rate” value was determined as 0.545 ± 0.032.

Take AUCACUGUCACCAUCUCUGAGAGAUUUUGA: the “pre-steady-state target cleavage rate” value is 0.071 ± 0.023.

With UAGUGAGUCACGAACUCUGAGAGAUUAACA, the “pre-steady-state target cleavage rate” value is 0.0474 ± 0.0069.

Consider AUCACUGUCACCUUCACUGAGAGAUUUACA, for which the “pre-steady-state target cleavage rate” value came to 0.511 ± 0.082.

Regarding UUCAGUGUCACCUUCACUGAGAGAUUAACA, the “pre-steady-state target cleavage rate” value worked out at 0.38 ± 0.03.

For UAGUGACAGACGUUCUCUGAGAGAUUUACA, the “pre-steady-state target cleavage rate” value is 0.00697 ± 0.0028.

Turning to UAGUCUGUCACCAUCUCUGAGAGAUUUACA, the “pre-steady-state target cleavage rate” value is 0.256 ± 0.032.

Turning to UACACUGUCACCUUCUCUGAGUGAUUAUCA, the “pre-steady-state target cleavage rate” value is 0.0214 ± 0.006.

As for UAGUGAAUCACCUUCUCUGAGAGAUUAACA, the “pre-steady-state target cleavage rate” value was 0.538 ± 0.051.

UUGACUGUCACCUUCUCUGAGAGAUUUACA: the “pre-steady-state target cleavage rate” value turned out to be 0.394 ± 0.041.

As to UAGUGAGUCAGCUUCUCUGAGACAUUAACA, the “pre-steady-state target cleavage rate” value amounted to 0.0722 ± 0.011.

Consider UAGUGAGUCACCUUCUGAGAGAGAUUAUGA, for which the “pre-steady-state target cleavage rate” value worked out at 0.00502 ± 0.0047.

UUCACUGUCACUUCUCUGAGAGAUUAACA: the “pre-steady-state target cleavage rate” value came out at 0.54 ± 0.046.

For the sequence UAGUGACACUCCUUCUCUGAGACAUUAACA, the “pre-steady-state target cleavage rate” value amounted to 0.088 ± 0.011.

As for UAGUGACAGUCCUUCUCUGAGAGAUUAAAA, the “pre-steady-state target cleavage rate” value worked out at 0.0154 ± 0.0051.

For UAGUGACAGUGGAAGAGACUGAGGAUUAACA, the “pre-steady-state target cleavage rate” value was under 0.0001.

Consider AUCACUGUCAGCUUCACUGAGAGAUUAACA, for which the “pre-steady-state target cleavage rate” value was found to be 0.571 ± 0.035.

Regarding UUCAGACUCACCUUCUCUGAGAGAUAUUGA, the “pre-steady-state target cleavage rate” value was found to be 0.00803 ± 0.0019.

In the case of UAGUCUGUCACCUUCAGAGAGAGAUUAACA, the “pre-steady-state target cleavage rate” value came out at 0.0128 ± 0.0072.

In the case of UAGUGAGUCACCAUCUCUGAGUGAUUAACA, the “pre-steady-state target cleavage rate” value was determined as 0.0219 ± 0.0055.

Turning to UAGUGACACAUCCUUCUCUGAGAGAUUAACA, the “pre-steady-state target cleavage rate” value is 0.267 ± 0.026.

For the sequence UAGUGUGUCACCUUCACUGACAGAUUAACA, the “pre-steady-state target cleavage rate” value turned out to be 0.336 ± 0.032.

Turning to UAGUGAGUCUCCUUCUCUGAGACAUUAACA, the “pre-steady-state target cleavage rate” value was 0.116 ± 0.015.

For UAGACAGUCACCUUCUCUGUGAGAUUAACA, the “pre-steady-state target cleavage rate” value came out at 0.247 ± 0.012.

Turning to UACACUGUCACCUUCUGAGAGAGAUUAACA, the “pre-steady-state target cleavage rate” value came to 0.0389 ± 0.0081.

On to AUCACUGUCACCAUCUCUGAGAGUUUAACA, for which the “pre-steady-state target cleavage rate” value was determined as 0.242 ± 0.036.

Consider “UAGUGACACACCUUCUCUGAGAGAUUAACA [g2:g22:cont:t1A]”, for which the “pre-steady-state target cleavage rate” value came to 0.534 ± 0.036.

Take UAGUCUGUCACCUAGUCUGAGAGAUUAACA: the “pre-steady-state target cleavage rate” value turned out to be 0.362 ± 0.026.

Turning to UUCACUGUCACCAAGUCUGAGAGAUUAACA, the “pre-steady-state target cleavage rate” value was determined as 0.181 ± 0.015.

On to UAGUGACUCAGCUUCUCUGAGAGAUUAACA, for which the “pre-steady-state target cleavage rate” value came out at 0.189 ± 0.016.

The record behind these values is the supplement of paper PMC10338343.
